Experimental data reported in PubChem BioAssay AID504333 (National Center for Advancing Translational Sciences (NCATS), 2011).
About 16,000 (4.4%) of roughly 360,000 compounds were called active. This list was built around the results that the source calls inconclusive (neither active nor inactive); the mix of calls is not that of the screen. The call rests on the fitted dose curve; in most records, active means well fitted inhibition curve with a large enough effect; inconclusive means small, poorly fitted or top-dose-only effect; inactive means no such curve, though single readings can be large or run the other way. Potencies beside an inconclusive call are fits to weak or partial responses and may not hold up.
Further: nearly all actives have a fitted effect of over 60% in size.
On the % scale 0 is the no-effect control and ±100 the full control effect; potency means the concentration at half of the fitted maximal effect; tags describe the fitted curve by direction and shape.

What follows are molecules tested against Bromodomain adjacent to zinc finger domain protein 2B (Homo sapiens) (UniProt Q9UIF8) (assay: qHTS Assay for Inhibitors of BAZ2B). Conditions: AlphaScreen BAZ2B-H3K14Ac peptide displacement; activity change, negative = inhibition: at 114 µM (top of the series).
Chain of UniProt Q9UIF8 (Q9UIF8 whole entry, looked up, the tested form may be a part): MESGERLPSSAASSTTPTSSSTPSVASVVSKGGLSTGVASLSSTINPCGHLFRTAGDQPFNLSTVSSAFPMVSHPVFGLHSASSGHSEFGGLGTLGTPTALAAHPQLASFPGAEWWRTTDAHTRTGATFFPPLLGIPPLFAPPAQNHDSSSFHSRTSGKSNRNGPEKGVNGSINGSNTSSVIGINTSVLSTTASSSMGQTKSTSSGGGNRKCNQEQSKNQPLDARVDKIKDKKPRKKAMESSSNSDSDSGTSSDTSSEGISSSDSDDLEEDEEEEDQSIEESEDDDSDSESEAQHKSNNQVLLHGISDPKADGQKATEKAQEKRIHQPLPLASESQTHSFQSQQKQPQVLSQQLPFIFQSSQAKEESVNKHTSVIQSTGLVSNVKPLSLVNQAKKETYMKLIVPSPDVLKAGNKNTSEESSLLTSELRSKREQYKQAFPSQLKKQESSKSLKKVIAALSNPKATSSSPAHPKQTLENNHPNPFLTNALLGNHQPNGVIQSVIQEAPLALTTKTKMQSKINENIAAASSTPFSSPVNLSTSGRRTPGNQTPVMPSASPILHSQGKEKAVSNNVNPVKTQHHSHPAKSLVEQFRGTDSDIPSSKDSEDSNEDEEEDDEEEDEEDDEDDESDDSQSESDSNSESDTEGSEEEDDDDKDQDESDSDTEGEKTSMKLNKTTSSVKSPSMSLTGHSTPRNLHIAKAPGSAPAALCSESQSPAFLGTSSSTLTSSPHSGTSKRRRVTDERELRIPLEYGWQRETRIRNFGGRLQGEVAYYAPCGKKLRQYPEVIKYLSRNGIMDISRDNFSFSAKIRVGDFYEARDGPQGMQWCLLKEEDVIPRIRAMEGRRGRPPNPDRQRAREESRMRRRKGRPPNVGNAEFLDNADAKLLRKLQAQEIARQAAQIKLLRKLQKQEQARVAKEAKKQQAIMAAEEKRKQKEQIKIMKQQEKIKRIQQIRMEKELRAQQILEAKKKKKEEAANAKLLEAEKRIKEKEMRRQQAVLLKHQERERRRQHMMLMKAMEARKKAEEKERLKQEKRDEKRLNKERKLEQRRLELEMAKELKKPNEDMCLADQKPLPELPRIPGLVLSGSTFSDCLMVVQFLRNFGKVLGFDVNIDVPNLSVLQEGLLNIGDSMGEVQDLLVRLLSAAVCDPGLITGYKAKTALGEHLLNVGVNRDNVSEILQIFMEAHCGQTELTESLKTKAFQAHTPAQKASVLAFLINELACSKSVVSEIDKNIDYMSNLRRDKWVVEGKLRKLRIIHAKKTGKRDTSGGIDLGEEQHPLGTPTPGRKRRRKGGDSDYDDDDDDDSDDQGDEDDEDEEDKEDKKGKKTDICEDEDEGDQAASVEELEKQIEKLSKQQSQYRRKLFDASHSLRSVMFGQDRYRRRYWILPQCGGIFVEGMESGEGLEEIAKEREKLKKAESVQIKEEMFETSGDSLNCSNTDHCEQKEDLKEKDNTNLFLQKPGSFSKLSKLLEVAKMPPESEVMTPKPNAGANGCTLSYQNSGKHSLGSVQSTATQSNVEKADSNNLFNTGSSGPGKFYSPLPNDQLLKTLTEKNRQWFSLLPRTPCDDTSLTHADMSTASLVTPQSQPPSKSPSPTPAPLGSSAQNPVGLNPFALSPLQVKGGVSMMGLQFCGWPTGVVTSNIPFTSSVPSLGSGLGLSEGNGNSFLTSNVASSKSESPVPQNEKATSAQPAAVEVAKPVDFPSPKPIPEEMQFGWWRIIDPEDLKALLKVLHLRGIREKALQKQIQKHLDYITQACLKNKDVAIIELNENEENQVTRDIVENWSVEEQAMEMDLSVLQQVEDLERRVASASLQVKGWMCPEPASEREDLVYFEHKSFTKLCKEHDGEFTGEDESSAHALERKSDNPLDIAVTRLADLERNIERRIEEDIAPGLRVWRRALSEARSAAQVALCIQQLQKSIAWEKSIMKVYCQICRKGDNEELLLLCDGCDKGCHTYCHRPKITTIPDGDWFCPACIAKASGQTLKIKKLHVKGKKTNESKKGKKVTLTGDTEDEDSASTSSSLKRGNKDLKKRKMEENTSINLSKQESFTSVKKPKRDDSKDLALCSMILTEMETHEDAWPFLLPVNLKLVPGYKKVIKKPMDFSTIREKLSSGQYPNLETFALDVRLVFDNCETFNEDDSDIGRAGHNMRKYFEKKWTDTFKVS
Method in brief: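 In this displacement format the biotinylated H3(5-23) peptide acetylated at Lys14 serves as ligand at 50 nM, with BAZ2B at 50 nM in PBS pH 7.4 containing 0.01% Tween-20. Donor and acceptor beads are 10 ug/mL final.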
For `C[n+]1cc(-c2ccccc2)n2c1CCCCC2`, the Potency was active: 44.7 µM. In the case of `Cc1ccc(N2C(=O)SC(N(CC(=O)O)c3ccc(C)cc3)C2=O)cc1` (configuration not stated), the Potency is reported as inconclusive: 10 µM [inhibitor, full curve, poor fit]. In the case of `Cc1ccsc1C=Nc1ccc(O)cc1`, the Potency is reported as active: 39.8 µM. In the case of `CCOc1ccc(NC(=O)N2CCC(n3c(=O)[nH]c4ccccc43)CC2)cc1`, the “activity change, negative = inhibition” value is reported as inactive: -1.1%. For `COc1cc(OC)c(NC(=O)c2cc(S(=O)(=O)N3CCOCC3)cn2C)cc1Cl`, the “activity change, negative = inhibition” value was inactive: -5.48%. For `Nc1c(C(=O)O)sc2nc(-c3ccc(F)cc3)cc(-c3ccccc3)c12`, the “activity change, negative = inhibition” value was inactive: -16.4%. `C[C@@H]1NC(=O)c2cc([N+](=O)[O-])cc(I)c2OCC[C@@H](C(N)=O)NC(=O)[C@H](CCC(=O)O)NC1=O` was tested, and the Potency was inconclusive: 89.1 µM [inhibitor, single point]. With `CCN(CC)c1ccc(/C=N/NC(=O)c2cc(C)nc3ccccc23)cc1` the Potency was inconclusive: 35.5 µM [inhibitor, partial curve]. In the case of `Cc1ccccc1N/C(=C(/C(Cl)=C(Cl)Cl)[N+](=O)[O-])n1nnc2ccccc21`, the Potency is reported as active: 50.1 µM. `Cc1cccc(C(=O)Nc2ccc(O)cc2C(=O)O)c1` was tested, and the Potency was inconclusive: 89.1 µM [inhibitor, single point]. `O=C(CCS(=O)(=O)c1cc(Br)cc2c1N(C(=O)C1CC1)CC2)N1CCN(c2cccc(Cl)c2)CC1` was tested, and the “activity change, negative = inhibition” value was inactive: -2.1%. `O=C(COC(=O)C1CC2C=CC1C2)NCc1ccco1` (configuration not stated) was tested, and the Potency was active: 28.2 µM. For `COc1cccc(NC(=O)C2CCN(C(=O)NC3CCCCC3)CC2)c1`, the “activity change, negative = inhibition” value was inactive: -11.5%. `C#CCOCCOCCOCCNc1nc(N2CCN(C(=O)[C@H]([C@@H](C)CC)n3cc([C@@H](N)CC(C)C)nn3)CC2)nc(N2CCN(C(=O)[C@H](CCCCN)n3cc([C@@H](N)CO)nn3)CC2)n1` was tested, and the Potency was active: 79.4 µM. `CN(C)S(=O)(=O)c1ccc(Cl)c(NC(=O)CSc2nc3c(cc2C#N)C(=O)CCC3)c1` was tested, and the Potency was inconclusive: 89.1 µM [inhibitor, single point]. `CC(=O)NC(=S)Nc1sc2c(c1C(N)=O)CCC(C)C2` (configuration not stated) was tested, and the “activity change, negative = inhibition” value was inactive: -28.6%. For `CCCN1CCN(c2nnc(-n3cccc3C(=O)Nc3cc(Cl)ccc3C)s2)CC1`, the Potency was inconclusive: 56.2 µM [inhibitor, partial curve]. For `OC[C@H]1OC(O)[C@H](O)[C@@H](O)[C@H]1O` (some centres not stated), the “activity change, negative = inhibition” value was inactive: -0.319%. In the case of `CC1CC(C)CN(S(=O)(=O)c2ccc3c(c2)CCN3C(=O)CCC(=O)O)C1` (configuration not stated), the “activity change, negative = inhibition” value is reported as inactive: 1.08%. For `COc1cc(NCc2ccccc2O)c2ncccc2c1`, the Potency was inconclusive: 56.2 µM [inhibitor, partial curve]. In the case of `CC1=C(C)C(=O)N(c2ccccn2)C1=O`, the “activity change, negative = inhibition” value is reported as inactive: 2.8%. With `CSCC(=O)N1CCCC(CNC(=O)c2ccc(-c3ccccc3)cc2)C1` (configuration not stated) the Potency was inconclusive: 89.1 µM [inhibitor, single point]. `COc1ccc(-n2c(=O)c3sc4ccccc4c3n(C)c2=O)cc1` was tested, and the “activity change, negative = inhibition” value was inactive: -1.59%. `O=C1/C(=C/c2ccc(F)cc2)SC(=S)N1CC(=O)N1CCCCC1c1cccnc1` (configuration not stated) was tested, and the Potency was inconclusive: 10 µM [inhibitor, full curve]. With `Cc1cc(NC(=O)CCn2c(=O)c3cccn3c3cccnc32)ccc1Br` the “activity change, negative = inhibition” value was inactive: -4.08%. With `COC(=O)C1=C(C)NC(C)=C(C(=O)OC)C1c1ccc(NC(C)=O)cc1` the Potency was inconclusive: 89.1 µM [inhibitor, single point]. With `CCCn1c(CCC(=O)Nc2cc(OC)cc(OC)c2)nc2cccnc21` the “activity change, negative = inhibition” value was inactive: -6.7%. For `CCOC(=O)c1[nH]cnc1C(=O)Nc1cccc(OC)c1`, the Potency was inconclusive: 89.1 µM [inhibitor, single point]. In the case of `COc1cc(/C=N/NC(=O)C(Cc2c[nH]c3ccccc23)NC(=O)OCC(C)C)cc([N+](=O)[O-])c1O` (configuration not stated), the Potency is reported as active: 50.1 µM. For `CCN1CCN(CCCOc2ccc(-c3ccccc3)cc2)CC1`, the “activity change, negative = inhibition” value was inactive: 9.75%. For `O=C(N/N=C/C=C/c1ccccc1[N+](=O)[O-])c1cc(-c2cccnc2)nc2ccccc12`, the Potency was inconclusive: 89.1 µM [inhibitor, single point]. In the case of `COC(=O)C1C(=O)C2=C(CC1C)NC(=O)CC2c1ccc(F)cc1` (configuration not stated), the “activity change, negative = inhibition” value is reported as inactive: -3.33%. `Cc1ccc(-c2[nH]ncc2CN2CCN(C(=O)c3cccs3)CC2)cc1C` was tested, and the Potency was inconclusive: 89.1 µM [inhibitor, single point]. With `O=C(NCc1ccco1)C1CC(c2ccccc2O)=NO1` (configuration not stated) the Potency was active: 79.4 µM. With `Cn1c(=O)c2c([nH]c(=S)n2CCCc2ccccc2)n(C)c1=O` the Potency was active: 28.2 µM. For `O=C(Cc1ccccc1)NCC(=O)N1CCC1`, the Potency was inconclusive: 3.98 µM [inhibitor, single point]. In the case of `O=C1CCC(=O)N(O)CCCCCNC(=O)CCC(=O)N(O)CCCCCNC(=O)CCC(=O)N(O)CCCCCN1`, the Potency is reported as inconclusive: 79.4 µM [inhibitor, single point]. With `COc1cc(NC(=O)C2CCN(S(=O)(=O)c3cccnc3)CC2)cc(OC)c1OC` the Potency was inconclusive: 89.1 µM [inhibitor, single point]. With `CCn1c(CCn2c3ccccc3c3ccccc32)n[nH]c1=S` the Potency was inconclusive: 89.1 µM [inhibitor, single point]. For `Oc1ccccc1CNc1ccc2c(c1)OCCO2`, the Potency was inconclusive: 39.8 µM [inhibitor, partial curve]. For `Cc1cc(-c2cn3ccccc3n2)c(C)n1-c1ccccc1`, the Potency was inconclusive: 50.1 µM [inhibitor, partial curve]. For `COc1ccc(N2CCN(C(=O)C3CCCN(S(=O)(=O)c4ccc(C)cc4)C3)CC2)cc1` (configuration not stated), the Potency was active: 39.8 µM. In the case of `Nc1nc(NCc2ccccc2)nc(Nc2cccc(F)c2)c1[N+](=O)[O-]`, the “activity change, negative = inhibition” value is reported as inactive: -4.39%. For `COc1ccc(N2CCN(c3ccc(C(N)=O)cc3[N+](=O)[O-])CC2)cc1`, the Potency was inconclusive: 28.2 µM [inhibitor, full curve]. In the case of `O=C(CCc1ccccc1)Nc1cc(S(=O)(=O)N2CCOCC2)ccc1N1CCCC1`, the “activity change, negative = inhibition” value is reported as inactive: -28.2%. In the case of `CC1=C(C(=O)Nc2ccc(Cl)cc2)C(c2ccccc2F)n2nc(SCc3cccc(Cl)c3)nc2N1` (configuration not stated), the Potency is reported as inconclusive: 89.1 µM [inhibitor, single point]. For `O=C(NC(=S)Nc1ccc(F)cc1)c1ccc2c(c1)OCCO2`, the Potency was inconclusive: 50.1 µM [inhibitor, partial curve].
